Test results reported in the supplement of paper PMC4604168 (melanoma cell lines).
This is one part of the list. Single values are uncertain, as repeats are few or missing.

Legend:
Test in all cases: cell count relative to DMSO control; melanoma cells; higher = more viable cells
Conditions in all cases: library dose: low library concentration; 72 h
MZ2-MEL = tested on: MZ2-MEL
MeWo = tested on: MeWo
RPMI7951 = tested on: RPMI7951
RVH-421 = tested on: RVH-421
SkMel28 = tested on: SkMel28
SkMel2 = tested on: SkMel2
SkMel30 = tested on: SkMel30
UACC62 = tested on: UACC62
WM115 = tested on: WM115
WM1716 = tested on: WM1716
WM1745 = tested on: WM1745
WM3526 = tested on: WM3526
WM3619 = tested on: WM3619
WM451Lu = tested on: WM451Lu
SkMel5 = tested on: SkMel5
UACC257 = tested on: UACC257
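Note: cell number obtained by counting DAPI-stained nuclei in high-throughput microscope images with image analysis software, screen run in 1,536-well plates.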

Compound	cell count (MZ2-MEL)	cell count (MeWo)	cell count (RPMI7951)	cell count (RVH-421)	cell count (SkMel28)	cell count (SkMel2)	cell count (SkMel30)	cell count (UACC62)	cell count (WM115)	cell count (WM1716)	cell count (WM1745)	cell count (WM3526)	cell count (WM3619)	cell count (WM451Lu)	cell count (SkMel5)	cell count (UACC257)
NC(=O)c1ccc(N(C(N)=O)c2c(F)cccc2F)nc1-c1ccc(F)cc1F + CCCCCCCCc1ccc(CCC(N)(CO)CO)cc1 [fingolimod] (first compound 0.4 µM, partner dose 2 µM)	88.3%	80%	63.2%	82.4%	86.6%	91.6%	102%	64.7%	87.7%	80.7%	54.7%	86.7%	68.3%	104%	–	–
NC(=O)c1ccc(N(C(N)=O)c2c(F)cccc2F)nc1-c1ccc(F)cc1F + O=C(O)c1ccc2c(c1)nc(Nc1cccc(Cl)c1)c1ccncc12 [CX4945] (first compound 0.4 µM, partner dose 0.4 µM)	99.6%	96.5%	91.1%	90.7%	112%	104%	115%	107%	103%	110%	89.7%	92.5%	78.4%	110%	–	–
COc1cc2c(Oc3ccc4[nH]c(C)cc4c3F)ncnc2cc1OCCCN1CCCC1 [cediranib] + CCN(CC)CCCCNc1ncc2cc(-c3cc(OC)cc(OC)c3)c(NC(=O)NC(C)(C)C)nc2n1 [PD173074] (first compound 0.4 µM, partner dose 0.1 µM)	103%	103%	90%	98.4%	91.4%	–	111%	95.6%	102%	99.8%	92.6%	106%	100%	98.9%	107%	117%
NC(=O)c1ccc(N(C(N)=O)c2c(F)cccc2F)nc1-c1ccc(F)cc1F + CNC(=O)c1cc(Oc2ccc(NC(=O)Nc3ccc(Cl)c(C(F)(F)F)c3)cc2)ccn1 [sorafenib] (first compound 0.4 µM, partner dose 0.4 µM)	87.4%	96.5%	87.3%	75.1%	88.4%	95.7%	106%	112%	94.6%	94.1%	93.6%	88.4%	80.8%	93.4%	–	–
CCCCCCCCc1ccc(CCC(N)(CO)CO)cc1 [fingolimod] + C=CCNC1=C2C[C@@H](C)C[C@H](OC)[C@H](O)[C@@H](C)/C=C(\C)[C@H](OC(N)=O)[C@@H](OC)/C=C\C=C(/C)C(=O)NC(=CC1=O)C2=O [Tanespimycin] (first compound 2 µM, partner dose 0.002 µM)	100%	84.2%	78.4%	78.5%	93%	90.7%	66.5%	88.3%	98.2%	54.8%	64.4%	79.4%	67.7%	74.1%	–	–
NC(=O)c1ccc(N(C(N)=O)c2c(F)cccc2F)nc1-c1ccc(F)cc1F + O=C(O)[C@@H]1[O][Sb](=[O])([O][Sb]2(=[O])[O][C@H]([C@H](O)CO)[C@H](O)[C@H](C(=O)O)[O]2)[O][C@H]([C@H](O)CO)[C@@H]1O [stibogluconate] (first compound 0.4 µM, partner dose 2 µM)	99%	101%	91.9%	95.8%	115%	88.6%	89.5%	93.1%	98.8%	90%	92%	106%	98.2%	111%	–	–
CCCCCCCCc1ccc(CCC(N)(CO)CO)cc1 [fingolimod] + OCc1c[nH]c2ccccc12 [Indole-3-carbinol] (first compound 2 µM, partner dose 0.8 µM)	104%	94.8%	87.7%	64.2%	105%	90%	89.3%	87.3%	90.1%	80.6%	61.8%	77.6%	48.2%	95.7%	–	–
CCCCCCCCc1ccc(CCC(N)(CO)CO)cc1 [fingolimod] + NC1(c2ccc(-c3nc4ccn5c(=O)[nH]nc5c4cc3-c3ccccc3)cc2)CCC1 [MK2206] (first compound 2 µM, partner dose 0.4 µM)	88%	73.8%	71.6%	74.5%	68.2%	78.3%	75.9%	58.1%	67%	72.8%	80.4%	65.5%	84.9%	75.4%	–	–
Cc1ccc(NC(=O)c2cccc(N(C)C)c2)cc1NC(=O)c1ccc(O)cc1 + O=S(=O)(c1ccccc1)N(CC(F)(F)F)c1ccc(C(O)(C(F)(F)F)C(F)(F)F)cc1 [T0901317] (first compound 2 µM, partner dose 1.4 µM)	72.4%	97.7%	88.4%	85.1%	91%	–	84.2%	92.1%	97.2%	99.7%	76%	89.1%	93.5%	120%	90.9%	99.9%
CCCCCCCCc1ccc(CCC(N)(CO)CO)cc1 [fingolimod] + C[C@]1(c2nc3c(C(N)=O)cccc3[nH]2)CCCN1 [Veliparib] (first compound 2 µM, partner dose 1.4 µM)	89.1%	76.6%	64.4%	77.8%	78.4%	92.5%	92.9%	53.6%	83.6%	69.3%	75.1%	89.6%	83.9%	88.6%	–	–
CCCCCCCCc1ccc(CCC(N)(CO)CO)cc1 [fingolimod] + CS(=O)(=O)CCNCc1ccc(-c2ccc3ncnc(Nc4ccc(OCc5cccc(F)c5)c(Cl)c4)c3c2)o1 [lapatinib] (first compound 2 µM, partner dose 0.8 µM)	98.6%	92.7%	66.5%	93.9%	81%	100%	89.6%	99.5%	98%	99%	83.5%	87.6%	100%	93.2%	–	–
COc1cc2c(Oc3ccc4[nH]c(C)cc4c3F)ncnc2cc1OCCCN1CCCC1 [cediranib] + Oc1nc(-c2ccc(C(F)(F)F)cc2)nc2c1CSCC2 [XAV939] (first compound 0.4 µM, partner dose 2 µM)	97.2%	97.2%	90.5%	90.4%	104%	–	111%	93.4%	112%	74%	80.3%	105%	110%	114%	75.6%	76.2%
NC(=O)c1ccc(N(C(N)=O)c2c(F)cccc2F)nc1-c1ccc(F)cc1F + Clc1ccc(Nc2nnc(Cc3ccncc3)c3ccccc23)cc1 [vatalanib] (first compound 0.4 µM, partner dose 2 µM)	99.7%	63.6%	92.3%	95.1%	110%	103%	88.9%	84.7%	110%	110%	109%	92%	78.2%	110%	–	–
CCCCCCCCc1ccc(CCC(N)(CO)CO)cc1 [fingolimod] + COCC[n+]1c2c(n(Cc3cnccn3)c1C)C(=O)c1ccccc1C2=O [YM155] (first compound 2 µM, partner dose 0.0004 µM)	74.6%	95.1%	77.6%	84.3%	83.3%	94.3%	77.8%	81.1%	94.6%	75.1%	89.2%	81.5%	87.3%	78.1%	–	–
CCCCCCCCc1ccc(CCC(N)(CO)CO)cc1 [fingolimod] + Clc1ccc(Nc2nnc(Cc3ccncc3)c3ccccc23)cc1 [vatalanib] (first compound 2 µM, partner dose 2 µM)	101%	89.4%	52.3%	93.1%	85.7%	80.2%	103%	81.4%	82.3%	81.6%	73.6%	76.6%	83.7%	93.1%	–	–
COc1cc2c(Oc3ccc4[nH]c(C)cc4c3F)ncnc2cc1OCCCN1CCCC1 [cediranib] + N#Cc1c(O)c2c(-c3ccc(-c4ccccc4O)cc3)csc2[nH]c1=O [A769662] (first compound 0.4 µM, partner dose 2 µM)	96.2%	110%	102%	116%	90.7%	–	95.4%	95%	94.9%	115%	104%	95.4%	112%	97.2%	103%	87.2%
CN(NC(=O)CC(=O)NN(C)C(=S)c1ccccc1)C(=S)c1ccccc1 + COc1cc(N2CCC(N3CCN(C)CC3)CC2)ccc1Nc1ncc(Cl)c(Nc2ccccc2S(=O)(=O)C(C)C)n1 [NVP-TAE684] (first compound 0.006 µM, partner dose 0.08 µM)	104%	65.8%	102%	79.1%	68.9%	–	77.9%	90.8%	78.2%	77.1%	50.7%	101%	67.3%	113%	80.8%	64.6%
Cc1ccc(NC(=O)c2cccc(N(C)C)c2)cc1NC(=O)c1ccc(O)cc1 + CCN(CC)CCCCNc1ncc2cc(-c3cc(OC)cc(OC)c3)c(NC(=O)NC(C)(C)C)nc2n1 [PD173074] (first compound 2 µM, partner dose 0.1 µM)	68.2%	93.4%	76%	95.1%	95.9%	–	83.1%	86.9%	96.4%	112%	88.6%	105%	111%	96.2%	102%	84.1%
COc1cc2c(Oc3ccc4[nH]c(C)cc4c3F)ncnc2cc1OCCCN1CCCC1 [cediranib] + COc1ccc(COc2ccc(Cc3cnc(N)nc3N)cc2OC)cc1 [GW2580] (first compound 0.4 µM, partner dose 1 µM)	99.9%	97.8%	91.5%	90.5%	86.8%	–	126%	82.4%	95%	92.8%	94.4%	94.7%	115%	117%	96.4%	86.4%
CN(NC(=O)CC(=O)NN(C)C(=S)c1ccccc1)C(=S)c1ccccc1 + O=S(=O)(c1ccccc1)N(CC(F)(F)F)c1ccc(C(O)(C(F)(F)F)C(F)(F)F)cc1 [T0901317] (first compound 0.006 µM, partner dose 1.4 µM)	99.1%	86.7%	99.9%	89.6%	77.7%	–	96.1%	87.7%	74.6%	53.2%	56.6%	84.7%	72.4%	116%	83.5%	92.2%
